Experimental data as given in the RNAGym collection of RNA variant scans (doi:10.7554/elife.90254).
The source gives no read counts; variants with many changes may rest on few reads.

B1: LINE1-mini (parent)
chain: GGCAGAGCUCAACACAGCGUGGCAAAGUGGCUGUGGCUAGACUGCC

Variants of: B1
Assay: self-cleavage, relative activity (ratio to wild type); higher = more cleavage; in vitro, sequencing; the parent is a self-cleaving ribozyme

Variant	self-cleavage
UGCAGAGCUCAACACAGAGUGGCAAACUGGCUGUGCCUAUACUUCC [G1U C18A G27C G36C G40U G44U]	0
GGCAGAGCCCAAUACACCGUGGCAAAGAGGCUGUGACUAGAAUGCA [U9C C13U G17C U28A G36A C42A C46A]	0.01
GGCAGAGCUCAACACAGCGUUGGAAAGUUGCUGUGGCUAGACUGCC [G21U C23G G29U]	0.12
GGCAGAGCGGAACACAGCGUGGCAAAAUGGCUGUGGCUAGACUGUA [U9G C10G G27A C45U C46A]	0.01
GUCAGAGCUCAACACAGCGUGGCAAAGUGGCUGUGCCUAGACUGUC [G2U G36C C45U]	0.17
GUCAGACCUCAACACAGCGUGGCAGAGUGGCUGUGUCUAGACUGCC [G2U G7C A25G G36U]	0.02
GGCAGAGCUCAACAAAGCGUGGCAAAGUGGCUGUGACUAGACUCCC [C15A G36A G44C]	0.03
GGCAGAGCUCAACACAGAGUGGGAAGGUGGCUGUGGCUUGACUGCC [C18A C23G A26G A39U]	0.15
GGCAGAGCUCAACUCAGCGUGGCACAGUCGCUGUGGCUAUACUGCC [A14U A25C G29C G40U]	0.05
GGCAGACCUCAACACAGCGUGGAAAAGUGGCUGUGGCUUGACAGCC [G7C C23A A39U U43A]	0
GGCAGAUCUCGACUCAGCGUGGCAAAGUGGCUGUGGCUAGACUGCC [G7U A11G A14U]	0.03
GGCAGAACUCAACUCAGCGUGGCAAACUGGCUGUGGCUAGCCUACC [G7A A14U G27C A41C G44A]	0.04
GGCAGAGCUCAACUCAGGGUGGCAAAGUGGCUGUGUCUAGACUGCC [A14U C18G G36U]	0.06
GGGACAGCUCAACGCAGCGUGGCAAAGUGGCUGUGGCUAGACUGGC [C3G G5C A14G C45G]	0.08
GGCAGAGCCCCACACAGCGCGGCAGAGUGGCUGUGGCUAGACUGCC [U9C A11C U20C A25G]	0
GGAAGAACUCAAUACAGCGAGGCAAAGUGGCUGUGGCUAGGCUGCC [C3A G7A C13U U20A A41G]	0.21
GUGUGAGAUCAACACAGCGUGGCAAAGUGGCUGUUGCUAGACUGCC [G2U C3G A4U C8A G35U]	0.06
GGCAUAGCUUAACAAAGCGUGGCAAAGUAGCCGUGGCUAGACGGCC [G5U C10U C15A G29A U32C U43G]	0.01
GGCAGAGAUGAAUACAGUGUGGCAAUGUGGCUGUGGCAAGACUGAC [C8A C10G C13U C18U A26U U38A C45A]	0

Variant	self-cleavage
GGCAGAGCUCAACACUGCGUGGCACAGUGGCCGUGGGUAGACUGCC [A16U A25C U32C C37G]	0.01
CGCAGAGCUCAACACAGCGUGGCAAAGUGGCUUUGUCUAGACUGCC [G1C G33U G36U]	0
GGCAGAGCUCAACAGACCGUGGCAAAGUGGCCGUAGCUAGACUGCC [C15G G17C U32C G35A]	0.03
GGCAGAGUUAAACCCAGCGUGGCUAAGUGGCUGUGGCUAGACUGCC [C8U C10A A14C A24U]	0.02
GGAAGAGGUCAAAACAGCGUUGCAAAGUGGCUGUGGCUAGACUGCC [C3A C8G C13A G21U]	0.07
UGCAGAGCUCAACACAGAGUGGCAAAGUUGCUGUGGCUAGACUGCC [G1U C18A G29U]	0.87
GGAAGAGCUCAACACAGCGUGACAAAGUGUCUGUAGCUAGACUGCC [C3A G22A G30U G35A]	0.15
GGCAGAGCUCAACACAUGGUGGCAGAGUGGCUGUGGCUAGACUGAC [G17U C18G A25G C45A]	0.1
GGCAGAGCUAUACACAGAGUGGCAAAGGGGCUGUGGCUAGACUGCC [C10A A11U C18A U28G]	0.02
CGCCGAGGUCAGCACAGUGUGGCAAAAUGGCUGUGGCUAGACUGCC [G1C A4C C8G A12G C18U G27A]	0.01
GGGAGAGCUGAACACAGCGUGGCAAAGCGGCUUUGGCUAGACUGCC [C3G C10G U28C G33U]	0.02
GGUAGAGUUCAACACAGCGUGGCAAAGUGGCUGUGGCUAGACUACC [C3U C8U G44A]	0.36
GGCGGAGCUCAACACAGCGUGGCAAAGUGGCGGUGGCUAUACUGCC [A4G U32G G40U]	0.05
GGUAGAGCUCAACACAGCGUGGUAGAGUAGCUGUGGCUAGACUGCC [C3U C23U A25G G29A]	0.62
GGCAGAUCUCAACACAUCGUGUCAAAGUGGCUAUGGCUAGAAUGCC [G7U G17U G22U G33A C42A]	0.46
GGCAAAGCUCAACAAAGCGUGGCAAAGUGGUUGUGGCUAGACUGCC [G5A C15A C31U]	0.03
GGCAGAGCUCAACACAGCGUGGGAAAGUGGCUGUGCCUAGACUUCC [C23G G36C G44U]	0
GGCAGAGCUUAACACAGCAUGGCAAAGUGGCUGAGGCUAGCCUGGC [C10U G19A U34A A41C C45G]	0.01
GACAGAGCUCAACUCAGCGUGGCAAAGUGGCUGUGGCUAGACUGUC [G2A A14U C45U]	2.05

Variant	self-cleavage
GGCAGAGCACAACACAGCGUGGCAGAGUGGCCGUGGAUAGACUGCC [U9A A25G U32C C37A]	0.01
GGCAAAGCUCAACCCAGCGUGACAAAGUGGCUGUGGCUAGACUGCC [G5A A14C G22A]	0
GGCUGAGCUCAACACUGCGUCGCAAUGUCGCUGUGGCUAGACUGCC [A4U A16U G21C A26U G29C]	0.12
GGCAGAGCUUAACACAGCGGGGCAAAGUGGCUGUGGCUAGACGACC [C10U U20G U43G G44A]	0.02
GGCAUAGCUCAACACAGCGUGGCAAAGGGGCUUUGUCUAGACGGCC [G5U U28G G33U G36U U43G]	0
GGCAGAGCUCAACACAGCGCGGGAAAGUGGCUGUGGCUAGACAGCC [U20C C23G U43A]	0.06
GGCAGAGCUCAACAUAACGGGGCAAAGUGGCUGUGGGUAGACUGCC [C15U G17A U20G C37G]	0.03
GGCAGAGGUCAACACCGCGUGGCAAAGUGGCUUUAUCUAGACCGCC [C8G A16C G33U G35A G36U U43C]	0
GGUAGAGCUCCAGACAUCGUGGCAAAGUGACUGUGGCUAGACUGCC [C3U A11C C13G G17U G30A]	0.02
GGCAGAGCCCAACACAGCGUGGCAACGUGGCUGUGACUAGACCGCC [U9C A26C G36A U43C]	0.02
GGCCGAGCUCACCACAGCGUGGCAAAGUGGCUGUGGCUAGACAGCC [A4C A12C U43A]	0.02
CGCAGAGCUCCACACAGCGUGGCAAAGAGGCUGUGGAUAGAUUGCC [G1C A11C U28A C37A C42U]	0
GGCAGAGCUCAACCCAGCGUGGCAAACUGGAUGUGGCUAGACUGCA [A14C G27C C31A C46A]	0.01
GGCAGAGCCCAACACAGGGUGGCAAAGUUGCUGUGGCUAGACUGCC [U9C C18G G29U]	0.04
GGCAGAGCUCAAUACAGCGGGGUAAAGUGGCUGUGGCUAGACUGCC [C13U U20G C23U]	0.05
GGCAGACCUGAACACGGAGUGGCAAUGUGUCUGUGGCUAGACUGCC [G7C C10G A16G C18A A26U G30U]	0.01
GGCAGAGCUCAAAACAGCGUGGCAUAGUGGCAGUGGCUAGACUGCC [C13A A25U U32A]	0.01
GGCAGAGCUAAACAUAGCGUGGCAAAGUGGGUGUGGCUACACUGCC [C10A C15U C31G G40C]	0.01
